# Results from article PMC4336329 (PLoS ONE, 2015).
# Screen size: about 310,000 compounds; about 2,200 (0.71%) showed an effect of 50% or more. Effects have a minus sign here. The list shows a part of the results.
# Target: human ether-à-go-go-related gene (hERG) potassium channel (human, UniProt Q12809)
# Assay: primary screen, population patch clamp on CHO cells stably expressing hERG
# Sequence of human ether-à-go-go-related gene (hERG) potassium channel (Q12809 whole entry, looked up): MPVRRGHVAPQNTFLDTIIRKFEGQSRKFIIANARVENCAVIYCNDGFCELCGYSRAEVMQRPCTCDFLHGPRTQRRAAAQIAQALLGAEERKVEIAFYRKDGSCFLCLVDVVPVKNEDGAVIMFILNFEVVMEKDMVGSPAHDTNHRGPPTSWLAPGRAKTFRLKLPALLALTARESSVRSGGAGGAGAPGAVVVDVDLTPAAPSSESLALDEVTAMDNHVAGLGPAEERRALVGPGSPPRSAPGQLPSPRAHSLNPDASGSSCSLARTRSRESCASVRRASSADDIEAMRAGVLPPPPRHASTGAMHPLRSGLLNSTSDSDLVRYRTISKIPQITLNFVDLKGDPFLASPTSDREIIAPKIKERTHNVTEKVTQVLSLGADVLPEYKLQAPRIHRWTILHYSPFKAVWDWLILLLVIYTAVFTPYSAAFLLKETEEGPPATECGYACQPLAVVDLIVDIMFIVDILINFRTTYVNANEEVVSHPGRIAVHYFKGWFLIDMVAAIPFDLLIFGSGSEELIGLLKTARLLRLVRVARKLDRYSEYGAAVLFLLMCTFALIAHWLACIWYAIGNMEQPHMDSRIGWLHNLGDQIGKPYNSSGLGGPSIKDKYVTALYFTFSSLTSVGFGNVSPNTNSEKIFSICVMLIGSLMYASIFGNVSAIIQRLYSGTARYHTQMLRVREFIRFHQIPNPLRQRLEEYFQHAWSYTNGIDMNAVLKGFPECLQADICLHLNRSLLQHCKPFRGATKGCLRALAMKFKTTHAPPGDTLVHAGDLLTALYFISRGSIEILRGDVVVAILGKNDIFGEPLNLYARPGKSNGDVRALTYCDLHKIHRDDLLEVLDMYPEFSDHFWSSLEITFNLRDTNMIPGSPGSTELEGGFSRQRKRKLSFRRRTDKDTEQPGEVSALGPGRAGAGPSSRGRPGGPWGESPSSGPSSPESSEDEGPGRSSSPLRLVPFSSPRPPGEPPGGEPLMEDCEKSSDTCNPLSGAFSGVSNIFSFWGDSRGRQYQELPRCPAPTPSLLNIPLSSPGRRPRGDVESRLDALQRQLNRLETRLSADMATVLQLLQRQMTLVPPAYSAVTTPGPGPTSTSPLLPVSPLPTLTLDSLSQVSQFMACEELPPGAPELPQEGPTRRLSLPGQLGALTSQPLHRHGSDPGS
row,Compound,"hERG current change (%, negative = inhibition) at 1uM [%]"
1,CC(=O)c1cnn(-c2nc3c(C)cccc3s2)c1C,4.11
2,COC(=O)c1ccccc1Oc1cc(C(F)(F)F)nc(-c2ccccn2)n1,16
3,COc1cc(-c2[nH]ncc2CN2CCSCC2)cc(OC)c1OC,6.12
4,CCOc1cc(/C=N\NC(=O)Cn2nnc3ccccc32)ccc1O,10
5,O=C(Cc1ccsc1-c1ccccc1)NO,12.3
6,COCCNC(=S)NN(c1ccccc1)c1ccccc1,-1.69
7,CC1=CC=CC2=NC(=O)CC(C)(C(=O)N(CC(=O)NC3CCCC3)Cc3ccc(Cl)cc3)N12 (stereo not shown),18.9
8,CCOC(=O)c1oc2cccc(O)c2c1CN(Cc1ccccc1)C(C)=O,0.711
9,O=C(NCc1ccco1)c1cc2n(n1)C(C(F)(F)F)CC(c1ccc(Br)cc1)N2 (stereo not shown),-7.46
10,Cc1ccc(SCC(=O)OCC(=O)N(CCC#N)c2ccccc2)cc1C,19.5
11,c1ccc(-c2nnc(SCc3nc4ccccc4[nH]3)o2)cc1,-3.74
12,CCC(=O)NC(=S)Nc1ccc(NC(=O)COc2ccc(Cl)c(C)c2)cc1,7.55
13,CCC(C)NC(=O)c1ccc(CSCc2ccccc2Cl)o1 (stereo not shown),9.19
14,CCOC(=O)C1(CCc2ccccc2)CCN(CC(O)CO)CC1 (stereo not shown),1.26
15,CCCCOc1ccc(-c2ncc(Cl)cn2)cc1,2.78
16,CCCn1c2ccccc2c2cn[nH]c(=O)c21,11.9
17,CCc1ccccc1NC(=O)CCNS(=O)(=O)c1ccc2c(c1)CCC(=O)N2,8.71
18,CC(CN1CCCC1)OC(=O)C(c1ccccc1)c1ccccc1.Cl (stereo not shown),-1.34
19,Cc1ccc2nc(C)c(C(=O)N/N=C/c3ccccc3[N+](=O)[O-])cc2c1,6.68
20,COc1ccc(CCNC(=O)C2CCN(c3nn4c(=O)cc(C)nc4s3)CC2)cc1OC,2.28
21,COc1ccc(N2C(=O)CC(N3CCN(S(=O)(=O)c4ccc(Cl)cc4)CC3)C2=O)cc1 (stereo not shown),2.11
22,Cc1ccc(CN2C(=O)[C@@H]3Cc4c([nH]c5ccccc45)C(C)(C)N3C2=O)cc1,15.2
23,Cc1ccc(C(C(=O)NC(C)(C)C)N(Cc2ccccc2)C(=O)c2snc(C(N)=O)c2N)o1 (stereo not shown),9.44
24,CCOC(=O)c1c(CSc2ccccc2)n(C)c2ccc(O)c(CN3CCOCC3)c12,-0.93
25,O=C(NCC(=O)N1CCCCC1)c1ccc(Cl)cc1Cl,8.88
26,COc1ccc(C2CC(c3ccccc3)=NN2c2ccc(C(N)=O)cc2)cc1 (stereo not shown),15.6
27,Cc1ccc(C(=O)CSc2nnc(-c3ccccc3N)n2C)cc1C,14
28,CCOc1ccc(NS(=O)(=O)c2ccc(NC(=O)c3cccnc3)c(OC)c2)cc1,7.15

row,Compound,"hERG current change (%, negative = inhibition) at 1uM [%]"
1,CN(C)/N=C/c1ccc(OC(=O)c2cccc([N+](=O)[O-])c2)cc1,-2.06
2,Cc1ccc(CNC(=O)C2CCCN(S(C)(=O)=O)C2)cc1 (stereo not shown),12.1
3,S=C(NCc1ccncc1)Nc1ccc(Cl)c(Cl)c1,6.45
4,COc1ccc(-c2c3c(=O)n(C)c(=O)n(C)c3cn2-c2cccc(OC)c2)cc1,12.7
5,CCC1C(C#N)=C(SC)NC2=C1C(=O)CC(C)(C)C2 (stereo not shown),-1.27
6,CC(=O)C1=C(O)C(=O)N(c2ccc(Br)cc2)C1c1cccc(F)c1 (stereo not shown),8.55
7,O=C(N/N=C/c1cccs1)c1cnccn1,3.24
8,CC(C)C[C@@]12C(=O)N(c3cccc(Cl)c3)C(=O)N1[C@H](c1ccc(Cl)cc1)[C@@H]1C(=O)N(C3CCCCC3)C(=O)[C@@H]12,9.9
9,Cc1ccc(NC(=O)CSc2nnc(-c3ccncc3)o2)cc1C,14.4
10,COc1ccc2nc(SCC(N)=O)[nH]c2c1,1.28
11,CCN1CCN(S(=O)(=O)c2ccc(Cl)c(C(=O)Nc3ccccc3N3CCCCC3)c2)CC1,26
12,Cc1ccccc1OCCCC(=O)Nc1ccc(S(=O)(=O)Nc2onc(C)c2C)cc1,16.7
13,CCn1c(CCNC(=O)c2ccc(C)cc2)n[nH]c1=S,4.88
14,Cc1cccc(/C=C2\Sc3ccc(C(=O)NCC4CCCO4)cc3N(C)C2=O)c1 (stereo not shown),15.4
15,CCOCCCN(Cc1cc2cc(C)cc(C)c2[nH]c1=O)C(=O)N(CC)CC,8.2
16,Cc1ccc(C(C(=O)NC2CCCCC2)N(C(=O)c2csnn2)C2CCCC2)o1 (stereo not shown),12.1
17,Cc1ccc2c(c1)c1nnc(SCC(=O)Nc3ccc(N(C)C)cc3)nc1n2CC(=O)O,5.68
18,O=C(CCS(=O)(=O)Cc1ccccc1F)NCc1ccccc1Cl,9.35
19,CN1CCN(c2nc3c(c(=O)[nH]c(=O)n3C)n2CCSc2nnnn2-c2ccccc2)CC1,6.39
20,CC(C)NC(=O)CSc1nnc(COc2ccccc2Cl)o1,6.18
21,O=[N+]([O-])c1ccc(-c2ccn[nH]2)o1,14.5
22,O=C(Cn1cnc2c(nnn2-c2cccc(Cl)c2)c1=O)N1CCOCC1,9.1
23,COc1cccc(-c2nc(Oc3cccc(C)c3C)c3ccccc3n2)c1O,6.41
24,CCCOC(=O)/C(=C\C=C\c1ccco1)NC(=O)c1ccccc1,16.1
25,Cc1nn(-c2ccccc2)c(C)c1/C=N/NC(=O)CSc1nnc(SCc2ccc(Cl)cc2)s1,10.4
26,NS(=O)(=O)c1cc(C(=O)OCC(=O)N2CCc3ccccc3C2)ccc1Cl,-2.01
27,CCC(C)(C)NC(=O)C(C(C)C)N(CC1CCCO1)C(=O)CNS(=O)(=O)c1ccccc1 (stereo not shown),8.12
